This is one part of the list.
Key:
Test in all cases: glycan array binding signal (z-score within array); higher = stronger binding
Conditions in all cases: glycan notation: IUPAC condensed, linker removed
Fuc(a1-2)Gal = target: Fuc(a1-2)Gal
Outline: (§1)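 The binding signal is a Z-score computed within each array. Data were drawn from 3228 arrays in the Consortium for Functional Glycomics database, restricted to those with a known protein sequence. Scores were averaged over arrays of the same protein sequence at different concentrations or buffers, and over linkers, and negative values can be taken as non-binding.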

Fuc(a1-2)Gal(b1-3)GalNAc = target: Fuc(a1-2)Gal(b1-3)GalNAc
Outline: as §1

[1] = target: Fuc(a1-2)Gal(b1-3)GalNAc(a1-3)[Fuc(a1-2)]Gal(b1-4)Glc
Outline: as §1

[2] = target: Fuc(a1-2)Gal(b1-3)GalNAc(a1-3)[Fuc(a1-2)]Gal(b1-4)GlcNAc
Outline: as §1

[3] = target: Fuc(a1-2)Gal(b1-3)GalNAc(b1-3)Gal
Outline: as §1

[4] = target: Fuc(a1-2)Gal(b1-3)GalNAc(b1-3)Gal(a1-4)Gal(b1-4)Glc
Outline: as §1

[5] = target: Fuc(a1-2)Gal(b1-3)GalNAc(b1-4)[Neu5Ac(a2-3)]Gal(b1-4)Glc
Outline: as §1

Fuc(a1-2)Gal(b1-3)GlcNAc = target: Fuc(a1-2)Gal(b1-3)GlcNAc
Outline: as §1

[6] = target: Fuc(a1-2)Gal(b1-3)GlcNAc(b1-2)Man(a1-3)[Fuc(a1-2)Gal(b1-3)GlcNAc(b1-2)Man(a1-6)]Man(b1-4)GlcNAc(b1-4)GlcNAc
Outline: as §1

[7] = target: Fuc(a1-2)Gal(b1-3)GlcNAc(b1-2)Man(a1-3)[Fuc(a1-2)Gal(b1-3)GlcNAc(b1-2)Man(a1-6)]Man(b1-4)GlcNAc(b1-4)[Fuc(a1-6)]GlcNAc
Outline: as §1

[8] = target: Fuc(a1-2)Gal(b1-3)GlcNAc(b1-3)Gal(b1-4)Glc
Outline: as §1

[9] = target: Fuc(a1-2)Gal(b1-3)GlcNAc(b1-3)GalNAc
Outline: as §1

[10] = target: Fuc(a1-2)Gal(b1-3)GlcNAc(b1-3)[Fuc(a1-2)Gal(b1-3)GlcNAc(b1-6)]GalNAc
Outline: as §1

[11] = target: Fuc(a1-2)Gal(b1-3)GlcNAc(b1-3)[Gal(b1-4)GlcNAc(b1-6)]Gal(b1-4)Glc
Outline: as §1

[12] = target: Fuc(a1-2)Gal(b1-3)GlcNAc(b1-3)[Neu5Ac(a2-6)Gal(b1-4)GlcNAc(b1-6)]Gal(b1-4)Glc
Outline: as §1

[13] = target: Fuc(a1-2)Gal(b1-3)GlcNAc6S
Outline: as §1

[14] = target: Fuc(a1-2)Gal(b1-3)[Fuc(a1-4)]GlcNAc
Outline: as §1

[15] = target: Fuc(a1-2)Gal(b1-3)[Fuc(a1-4)]GlcNAc(b1-2)Man(a1-3)[Fuc(a1-2)Gal(b1-3)[Fuc(a1-4)]GlcNAc(b1-2)Man(a1-3)]Man(b1-4)GlcNAc(b1-4)GlcNAc
Outline: as §1

[16] = target: Fuc(a1-2)Gal(b1-3)[Fuc(a1-4)]GlcNAc(b1-2)Man(a1-3)[Fuc(a1-2)Gal(b1-3)[Fuc(a1-4)]GlcNAc(b1-2)Man(a1-6)]Man(b1-4)GlcNAc(b1-4)[Fuc(a1-6)]GlcNAc(b1-4)[Fuc(a1-6)]GlcNAc
Outline: as §1

[17] = target: Fuc(a1-2)Gal(b1-3)[Fuc(a1-4)]GlcNAc(b1-3)[Fuc(a1-3)[Gal(b1-4)]GlcNAc(b1-6)]Gal(b1-4)Glc
Outline: as §1

[18] = target: Fuc(a1-2)Gal(b1-3)[Fuc(a1-4)]GlcNAc(b1-3)[Gal(b1-4)GlcNAc(b1-6)]Gal(b1-4)Glc
Outline: as §1

[19] = target: Fuc(a1-2)Gal(b1-4)Fuc(a1-3)]GlcNAc(b1-2)Man(a1-3)[Fuc(a1-2)Gal(b1-4)[Fuc(a1-3)]GlcNAc(b1-2)Man(a1-6)]Man(b1-4)GlcNAc(b1-4)GlcNAc
Outline: as §1

Fuc(a1-2)Gal(b1-4)Glc = target: Fuc(a1-2)Gal(b1-4)Glc
Outline: as §1

Fuc(a1-2)Gal(b1-4)Glc6S = target: Fuc(a1-2)Gal(b1-4)Glc6S
Outline: as §1

Fuc(a1-2)Gal(b1-4)GlcNAc = target: Fuc(a1-2)Gal(b1-4)GlcNAc
Outline: as §1

[20] = target: Fuc(a1-2)Gal(b1-4)GlcNAc(b1-2)Man
Outline: as §1

[21] = target: Fuc(a1-2)Gal(b1-4)GlcNAc(b1-2)Man(a1-3)[Fuc(a1-2)Gal(b1-4)GlcNAc(b1-2)Man(a1-6)]Man(b1-4)GlcNAc(b1-4)GlcNAc
Outline: as §1

[22] = target: Fuc(a1-2)Gal(b1-4)GlcNAc(b1-2)Man(a1-3)[Fuc(a1-2)Gal(b1-4)GlcNAc(b1-2)Man(a1-6)]Man(b1-4)GlcNAc(b1-4)[Fuc(a1-6)]GlcNAc
Outline: as §1

[23] = target: Fuc(a1-2)Gal(b1-4)GlcNAc(b1-2)[Fuc(a1-2)Gal(b1-4)GlcNAc(b1-4)]Man(a1-3)[Fuc(a1-2)Gal(b1-4)GlcNAc(b1-2)Man(a1-6)]Man(b1-4)GlcNAc(b1-4)GlcNAc
Outline: as §1

[24] = target: Fuc(a1-2)Gal(b1-4)GlcNAc(b1-3)Gal(b1-4)GlcNAc
Outline: as §1

B1: DC-ASGPR L+GEE (Homo sapiens) (protein)
chain: MTRTYENFQYLENKVKVQGFKNGPLPLQSLLQRLRSGPCHLLLSLGLGLLLLVIICVVGFQNSKFQRDLVTLRTDFSNFTSNTVAEIQALTSQGSSLEETIASLKAEVEGFKQERQAGVSELQEHTTQKAHLGHCPHCPSVCVPVHSEMLLRVQQLVQDLKKLTCQVATLNNNGEEASTEGTCCPVNWVEHQDSCYWFSHSGMSWAEAEKYCQLKNAHLVVINSREEQNFVQKYLGSAYTWMGLSDPEGAWKWVDGTDYATGFQNWKPGQPDDWQGHGLGGGEDCAHFHPDGRWNDDVCQRPYHWVCEAGLGQTSQESH
glycan array binding signal (z-score) (Fuc(a1-2)Gal): 0.04 | glycan array binding signal (z-score) (Fuc(a1-2)Gal(b1-3)GalNAc): -0.483 | glycan array binding signal (z-score) [1]: -0.484 | glycan array binding signal (z-score) [2]: -0.331 | glycan array binding signal (z-score) [3]: -0.076 | glycan array binding signal (z-score) [4]: -0.503 | glycan array binding signal (z-score) [5]: 0.197 | glycan array binding signal (z-score) (Fuc(a1-2)Gal(b1-3)GlcNAc): -0.458 | glycan array binding signal (z-score) [6]: 0.259 | glycan array binding signal (z-score) [7]: -0.314 | glycan array binding signal (z-score) [8]: -0.267 | glycan array binding signal (z-score) [9]: -0.282 | glycan array binding signal (z-score) [10]: -0.493 | glycan array binding signal (z-score) [11]: 0.314 | glycan array binding signal (z-score) [12]: -0.405 | glycan array binding signal (z-score) [13]: -0.46 | glycan array binding signal (z-score) [14]: -0.297 | glycan array binding signal (z-score) [15]: -0.252 | glycan array binding signal (z-score) [16]: -0.191 | glycan array binding signal (z-score) [17]: -0.413 | glycan array binding signal (z-score) [18]: -0.725 | glycan array binding signal (z-score) [19]: 0.33 | glycan array binding signal (z-score) (Fuc(a1-2)Gal(b1-4)Glc): -1.02 | glycan array binding signal (z-score) (Fuc(a1-2)Gal(b1-4)Glc6S): -0.396 | glycan array binding signal (z-score) (Fuc(a1-2)Gal(b1-4)GlcNAc): -0.198 | glycan array binding signal (z-score) [20]: 0.054 | glycan array binding signal (z-score) [21]: -0.539 | glycan array binding signal (z-score) [22]: -0.017 | glycan array binding signal (z-score) [23]: -0.521 | glycan array binding signal (z-score) [24]: -0.787

Source: the supplement of paper PMC8728848
